This is an account of results in the antibiotic and cytotoxicity screens of Wong et al. (2023).

For one test, the system named is HSkMC. In words: cytotoxicity call (relative viability < 0.9). To be noted: 10 µM.
A further test deals with HepG2. In words: cytotoxicity call (relative viability < 0.9). Conditions: 10 µM.
For a further test, the system named is S. aureus RN4220. Kind of test: growth inhibition call (relative growth <= 0.2). To be noted: 50 µM.

Some of the results follow.

As to `C[C@@H]1CN([C@H](C)CO)C(=O)c2cccc(NS(=O)(=O)c3cn(C)cn3)c2O[C@@H]1CN(C)S(=O)(=O)c1ccc(Cl)cc1`, the cytotoxicity call with HSkMC and with HepG2 was “inactive” in each case. Further, in the test on S. aureus RN4220, the growth inhibition call was “inactive”.
For the compound `C[C@@H]1CCCCO[C@@H](CN(C)C(=O)Nc2cccc3ccccc23)[C@H](C)CN([C@@H](C)CO)C(=O)c2cc(NC(=O)CCC(F)(F)F)ccc2O1`, the cytotoxicity call with HSkMC and with HepG2 was “inactive” in each case. Further, the growth inhibition call in the test with S. aureus RN4220 is “inactive”.
For the compound `COc1ccc(NC(=O)N(C)C[C@H]2OCc3ccccc3-c3c(n(C)c4ccccc34)C(=O)N([C@H](C)CO)C[C@@H]2C)cc1`, the cytotoxicity call in the test on HSkMC and with HepG2 was “inactive” each time. Further, the growth inhibition call in the test with S. aureus RN4220 is “inactive”.
As to `CN1CCN(C(=O)C[C@H]2C=C[C@H](NC(=O)Nc3ccccc3F)[C@@H](CO)O2)CC1`, the cytotoxicity call in the test on HSkMC and in the test with HepG2 was “inactive” throughout. In addition, in the test with S. aureus RN4220, the growth inhibition call was “inactive”.
Turning to `Cc1noc(C)c1NC(=O)N(C)C[C@@H]1Oc2ccc(NC(=O)Nc3cccc4ccccc34)cc2CC(=O)N([C@H](C)CO)C[C@@H]1C`, the cytotoxicity call with HSkMC and in the test with HepG2 was “inactive” each time. Besides, the growth inhibition call in the test with S. aureus RN4220 is “inactive”.
In the case of `C[C@@H]1CCCCO[C@@H](CN(C)S(=O)(=O)c2ccc(Cl)cc2)[C@@H](C)CN([C@@H](C)CO)C(=O)c2cc(NS(=O)(=O)c3ccc(Cl)cc3)ccc2O1`, the cytotoxicity call in the test on HSkMC and with HepG2 was “inactive” each time. Further, in the test on S. aureus RN4220, the growth inhibition call is “inactive”.
As for `C[C@@H]1CN([C@@H](C)CO)C(=O)c2cc(NS(=O)(=O)c3cn(C)cn3)ccc2O[C@H]1CN(C)S(=O)(=O)c1ccccc1`, the cytotoxicity call in the test on HSkMC and in the test on HepG2 was “inactive” in each case. The growth inhibition call in the test with S. aureus RN4220 is “inactive”.
Turning to `COc1ccc(NC(=O)N(C)C[C@H]2Oc3ncc(C#CC(C)C)cc3C(=O)N([C@H](C)CO)C[C@@H]2C)cc1`, the cytotoxicity call with HSkMC and in the test on HepG2 was “inactive” each time. Besides, the growth inhibition call in the test on S. aureus RN4220 is “inactive”.
On to `COC(=O)Nc1nc2cc(C(=O)c3ccccc3)ccc2[nH]1`, for which, in the test on HSkMC (human skeletal muscle cells), the cytotoxicity call is “inactive”. Further, the cytotoxicity call in the test on HepG2 was “active”. The growth inhibition call with S. aureus RN4220 is “inactive”.
